The other results are listed elsewhere or left out.
biological target: T1, MBP-FoxP1dN (Mus musculus, UniProt P58462 326-579); assay: PD-seq (MBP pull-down with sequencing); 20 mM Tris-HCl pH 7.5, 100 mM NaCl, 1.5 mM MgCl2, 0.4 uM protein, 0.1 uM dsDNA library, 30 min, room temperature, amylose pull-down; high values mean tight binding; details: protein: recombinant; tags: His6-MBP; chain copies: 2; dsDNA, one strand shown
T1 sequence: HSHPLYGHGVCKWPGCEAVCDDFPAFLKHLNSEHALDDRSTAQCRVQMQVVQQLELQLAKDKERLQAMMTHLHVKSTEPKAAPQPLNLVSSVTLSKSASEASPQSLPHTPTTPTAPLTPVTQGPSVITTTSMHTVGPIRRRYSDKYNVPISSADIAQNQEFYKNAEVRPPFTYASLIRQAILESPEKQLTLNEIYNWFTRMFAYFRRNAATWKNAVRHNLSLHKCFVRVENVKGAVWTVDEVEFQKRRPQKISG
Method in brief: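 A degenerate double-stranded DNA library, filled in with Klenow, was added at 0.1 µM to 0.4 µM His6-MBP-tagged mouse FoxP3 or FoxP1 fragment lacking the N-terminus, expressed in E. coli. Incubation lasted 30 min at room temperature in Tris pH 7.5 buffer with NaCl and MgCl2, after which complexes were collected on amylose resin, washed three times, digested with proteinase K to free the DNA, barcoded by PCR and sequenced by Illumina. Binding is the pooled-replicate reads-per-million enrichment of pull-down over input.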

Sequence	binding signal
GATGATTGTTCTCCCAGCTGATGAATTGCCTTCTTCGAGTAAACAAATTTTCCTAATCTTTCTGTTCAAGCGCCATCTAC	0.996 RPM ratio (pull-down/input)
GATGATTGTTCTCCCAGCTGATGAATTGTGATCGTCGAGTAAACAAATTTTCCTAATCTTTCTGTTCAAGCGCCATCTAC	1.16 RPM ratio (pull-down/input)
GATGATTGTTCTCCCAGCTGATGAATTGCAATTTTCGAGTAAACAAATTTTCCTAATCTTTCTGTTCAAGCGCCATCTAC	1.59 RPM ratio (pull-down/input)
GATGATTGTTCTCCCAGCTGATGAATTTGGTGACTCGAGTAAACAAATTTTCCTAATCTTTCTGTTCAAGCGCCATCTAC	0.903 RPM ratio (pull-down/input)
GATGATTGTTCTCCCAGCTGATGAATTAGTTTTCTCGAGTAAACAAATTTTCCTAATCTTTCTGTTCAAGCGCCATCTAC	1.06 RPM ratio (pull-down/input)
GATGATTGTTCTCCCAGCTGATGAATTTTGTCACTCGAGTAAACAAATTTTCCTAATCTTTCTGTTCAAGCGCCATCTAC	1.13 RPM ratio (pull-down/input)
GATGATTGTTCTCCCAGCTGATGAATTCAGTAAATCGAGTAAACAAATTTTCCTAATCTTTCTGTTCAAGCGCCATCTAC	1.26 RPM ratio (pull-down/input)
GATGATTGTTCTCCCAGCTGATGAATTACAGGGATCGAGTAAACAAATTTTCCTAATCTTTCTGTTCAAGCGCCATCTAC	0.913 RPM ratio (pull-down/input)
GATGATTGTTCTCCCAGCTGATGAATTTTTAATCTCGAGTAAACAAATTTTCCTAATCTTTCTGTTCAAGCGCCATCTAC	0.864 RPM ratio (pull-down/input)
GATGATTGTTCTCCCAGCTGATGAATTGACCTTTTCGAGTAAACAAATTTTCCTAATCTTTCTGTTCAAGCGCCATCTAC	0.951 RPM ratio (pull-down/input)
GATGATTGTTCTCCCAGCTGATGAATTAGATCATTCGAGTAAACAAATTTTCCTAATCTTTCTGTTCAAGCGCCATCTAC	0.995 RPM ratio (pull-down/input)
GATGATTGTTCTCCCAGCTGATGAATTGGTTGTATCGAGTAAACAAATTTTCCTAATCTTTCTGTTCAAGCGCCATCTAC	1.3 RPM ratio (pull-down/input)
GATGATTGTTCTCCCAGCTGATGAATTAGTAGCTTCGAGTAAACAAATTTTCCTAATCTTTCTGTTCAAGCGCCATCTAC	0.979 RPM ratio (pull-down/input)
GATGATTGTTCTCCCAGCTGATGAATTGCACCAATCGAGTAAACAAATTTTCCTAATCTTTCTGTTCAAGCGCCATCTAC	1.27 RPM ratio (pull-down/input)
GATGATTGTTCTCCCAGCTGATGAATTGTGTTTGTCGAGTAAACAAATTTTCCTAATCTTTCTGTTCAAGCGCCATCTAC	2.8 RPM ratio (pull-down/input)
GATGATTGTTCTCCCAGCTGATGAATTCGATACTTCGAGTAAACAAATTTTCCTAATCTTTCTGTTCAAGCGCCATCTAC	0.906 RPM ratio (pull-down/input)

Sequence	binding signal
GATGATTGTTCTCCCAGCTGATGAATTACATCTATCGAGTAAACAAATTTTCCTAATCTTTCTGTTCAAGCGCCATCTAC	1.2 RPM ratio (pull-down/input)
GATGATTGTTCTCCCAGCTGATGAATTACCGTTTTCGAGTAAACAAATTTTCCTAATCTTTCTGTTCAAGCGCCATCTAC	1.15 RPM ratio (pull-down/input)
GATGATTGTTCTCCCAGCTGATGAATTACGTTATTCGAGTAAACAAATTTTCCTAATCTTTCTGTTCAAGCGCCATCTAC	1.21 RPM ratio (pull-down/input)
GATGATTGTTCTCCCAGCTGATGAATTGTAATTCTCGAGTAAACAAATTTTCCTAATCTTTCTGTTCAAGCGCCATCTAC	1.05 RPM ratio (pull-down/input)
GATGATTGTTCTCCCAGCTGATGAATTTCACCTATCGAGTAAACAAATTTTCCTAATCTTTCTGTTCAAGCGCCATCTAC	0.832 RPM ratio (pull-down/input)
GATGATTGTTCTCCCAGCTGATGAATTTAAGAGATCGAGTAAACAAATTTTCCTAATCTTTCTGTTCAAGCGCCATCTAC	0.932 RPM ratio (pull-down/input)
GATGATTGTTCTCCCAGCTGATGAATTATAACAGTCGAGTAAACAAATTTTCCTAATCTTTCTGTTCAAGCGCCATCTAC	1.2 RPM ratio (pull-down/input)
GATGATTGTTCTCCCAGCTGATGAATTTTCAGAATCGAGTAAACAAATTTTCCTAATCTTTCTGTTCAAGCGCCATCTAC	0.968 RPM ratio (pull-down/input)
GATGATTGTTCTCCCAGCTGATGAATTCCTGAGTTCGAGTAAACAAATTTTCCTAATCTTTCTGTTCAAGCGCCATCTAC	0.814 RPM ratio (pull-down/input)
GATGATTGTTCTCCCAGCTGATGAATTGATCTAGTCGAGTAAACAAATTTTCCTAATCTTTCTGTTCAAGCGCCATCTAC	0.885 RPM ratio (pull-down/input)
GATGATTGTTCTCCCAGCTGATGAATTGTGAGAGTCGAGTAAACAAATTTTCCTAATCTTTCTGTTCAAGCGCCATCTAC	0.956 RPM ratio (pull-down/input)
GATGATTGTTCTCCCAGCTGATGAATTTCCGCATTCGAGTAAACAAATTTTCCTAATCTTTCTGTTCAAGCGCCATCTAC	1.19 RPM ratio (pull-down/input)
GATGATTGTTCTCCCAGCTGATGAATTCGGCAAGTCGAGTAAACAAATTTTCCTAATCTTTCTGTTCAAGCGCCATCTAC	0.824 RPM ratio (pull-down/input)
GATGATTGTTCTCCCAGCTGATGAATTTAGCCAATCGAGTAAACAAATTTTCCTAATCTTTCTGTTCAAGCGCCATCTAC	1.09 RPM ratio (pull-down/input)
GATGATTGTTCTCCCAGCTGATGAATTACAGACATCGAGTAAACAAATTTTCCTAATCTTTCTGTTCAAGCGCCATCTAC	1.06 RPM ratio (pull-down/input)
GATGATTGTTCTCCCAGCTGATGAATTACGTACCTCGAGTAAACAAATTTTCCTAATCTTTCTGTTCAAGCGCCATCTAC	0.957 RPM ratio (pull-down/input)

Reference: article PMC12820563, “FoxP3 forms a head-to-head dimer in vivo and stabilizes its multimerization on adjacent microsatellites”
